# Measurements taken from article PMC4336329 (PLoS ONE, 2015).
# The whole screen tested about 310,000 compounds, of which about 14,000 (4.5%) showed an effect of 50% or more. The effect is printed as a negative number. The list shows a part of the results.
# Target: human ether-à-go-go-related gene (hERG) potassium channel (human, UniProt Q12809)
# Experiment: primary screen, population patch clamp on CHO cells stably expressing hERG
# 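Note: peak tail current of the secondary pulse compared with the same well before compound.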
# human ether-à-go-go-related gene (hERG) potassium channel, sequence (Q12809 whole entry, looked up): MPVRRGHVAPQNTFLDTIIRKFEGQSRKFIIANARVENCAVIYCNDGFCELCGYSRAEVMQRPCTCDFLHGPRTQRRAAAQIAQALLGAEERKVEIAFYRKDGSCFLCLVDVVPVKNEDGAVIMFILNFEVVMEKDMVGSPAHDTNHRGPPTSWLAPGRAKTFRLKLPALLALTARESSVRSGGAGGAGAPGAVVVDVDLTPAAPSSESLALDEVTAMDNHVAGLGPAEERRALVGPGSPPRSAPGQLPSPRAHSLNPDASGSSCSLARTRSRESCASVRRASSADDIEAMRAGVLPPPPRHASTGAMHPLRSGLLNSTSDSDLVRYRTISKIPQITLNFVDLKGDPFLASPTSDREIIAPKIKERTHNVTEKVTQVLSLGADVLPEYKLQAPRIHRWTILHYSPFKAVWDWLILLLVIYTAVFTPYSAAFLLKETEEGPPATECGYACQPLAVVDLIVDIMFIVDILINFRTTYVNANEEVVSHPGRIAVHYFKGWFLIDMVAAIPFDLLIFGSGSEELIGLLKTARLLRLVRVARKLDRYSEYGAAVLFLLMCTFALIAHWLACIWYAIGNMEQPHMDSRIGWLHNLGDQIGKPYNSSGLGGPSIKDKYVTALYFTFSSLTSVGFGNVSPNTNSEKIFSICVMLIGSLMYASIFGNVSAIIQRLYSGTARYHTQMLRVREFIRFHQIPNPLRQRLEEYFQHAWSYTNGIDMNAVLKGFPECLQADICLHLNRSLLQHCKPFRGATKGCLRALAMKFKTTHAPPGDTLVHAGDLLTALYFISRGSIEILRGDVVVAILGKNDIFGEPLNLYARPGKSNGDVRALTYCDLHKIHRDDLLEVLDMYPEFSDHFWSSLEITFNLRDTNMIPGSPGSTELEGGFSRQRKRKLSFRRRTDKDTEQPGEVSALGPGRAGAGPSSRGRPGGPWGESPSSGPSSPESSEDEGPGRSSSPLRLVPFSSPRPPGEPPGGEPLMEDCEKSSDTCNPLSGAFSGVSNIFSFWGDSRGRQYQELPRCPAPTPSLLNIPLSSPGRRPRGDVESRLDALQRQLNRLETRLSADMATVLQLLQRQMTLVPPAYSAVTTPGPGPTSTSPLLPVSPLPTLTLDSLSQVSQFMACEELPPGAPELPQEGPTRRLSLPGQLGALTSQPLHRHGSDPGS
row,Compound,"hERG current change (%, negative = inhibition) at 10uM [%]"
1,CCCCNC(=O)c1onc(CSc2ccccc2)c1C(=O)O,8.54
2,Cc1nn(C(CC(=O)O)C(=O)O)c(C)c1Br (centres unmarked),19.3
3,Cc1ccc(NC(=O)c2cc(F)c(F)cc2Cl)nc1,16.5
4,CCCN(CCC)C(=O)Cn1c(=O)n(CCCC(=O)NCc2ccco2)c(=O)c2sccc21,-11.7
5,O=C(CSc1ncnc2c1nnn2Cc1ccc(F)cc1)NC1CCCC1,8.71
6,COC(=O)CN(c1ccccc1[N+](=O)[O-])S(=O)(=O)c1ccccc1,-19.3
7,Cc1c(Cl)cccc1NC(=O)CNC(=O)CCS(=O)(=O)c1ccc(F)cc1,-6.31
8,CSc1cccc(NCc2ccc([N+](=O)[O-])cc2)c1,-10.7
9,COCc1cc(=O)[nH]c(Cc2c(Cl)cccc2Cl)n1,8.51
10,Cl.O=C(O)C1NCCc2ccccc21 (centres unmarked),-14.2
11,CNC(=O)/C(C#N)=C/c1ccc(OCCOc2ccccc2)cc1,22.8
12,COc1ccc(OC)c(CN2CCN(Cc3cc(OC)c(OC)c(OC)c3)CC2)c1,9.45
13,CCOC(=O)c1cc(-c2ccccc2)sc1N,0.819
14,COc1cc(OC)cc(C(=O)Nc2cc(-c3cn4cccnc4n3)ccc2C)c1,15.9
15,Cc1ccc(-c2noc(N=O)c2NO)cc1,6.74
16,CCOC(=O)C(=CNNc1cccc(Cl)c1)C(=O)OCC,15.5
17,Cn1c(CCNC(=O)c2ccc(F)cc2)nc2ccccc21,-29.4
18,COc1ccc(C2CC(c3cccs3)=NN2C(=O)CSc2nc(=O)n3cc(C)ccc3n2)cc1 (centres unmarked),-64.8
19,Cc1c(C)c2ccc(OC3CCCCC3=O)cc2oc1=O (centres unmarked),10.9
20,CCOC(=O)Nc1ccc(NC(=O)c2ccccc2F)cc1,7.89
21,COc1ccccc1C(=O)OCCN=C1NS(=O)(=O)c2ccccc21,-1.89
22,COc1ccc(C(CNC(=O)c2ccc(S(=O)(=O)N3CCCC3)cc2)N2CCOCC2)cc1 (centres unmarked),-1.39

row,Compound,"hERG current change (%, negative = inhibition) at 10uM [%]"
1,Cc1nc2scc(C)n2c(=O)c1S(=O)(=O)NC(C)c1ccccc1 (centres unmarked),6.37
2,CCc1ccc(OCC(=O)O/N=C(\N)c2ccncc2)cc1,4.92
3,O=C(NCCc1ccc(C(F)(F)F)cc1)c1ccc2c(c1)OCO2,6.54
4,CCSc1oc(-c2ccco2)nc1S(=O)(=O)c1ccc(F)cc1,-23.2
5,COc1ccc(NC(=O)c2cc(-c3cc(C)c(C)cc3O)n[nH]2)c(OC)c1,23.5
6,CCCCOc1ccc(CSc2ncn[nH]2)cc1,-0.564
7,CC(NC(=O)c1ccc(Cn2cc([N+](=O)[O-])cn2)o1)c1ccccc1 (centres unmarked),-14.2
8,OC1CCCN(Cc2ccc3ccc4cccc5ccc2c3c45)C1 (centres unmarked),-4.79
9,O=C(Cc1c(Cl)cccc1Cl)Nc1ccncc1Cl,7.9
10,Cc1cc2ccc3ccccc3c2cc1CN(C)C.Cl,-51.9
11,COc1c(OC(C)=O)ccc(/C=N\NC(=O)c2ccc(Br)cc2)c1[N+](=O)[O-],18.2
12,Cc1ccc(SC(=O)c2c([N+](=O)[O-])c(C)nn2C)cc1,11.4
13,Cc1cccc(C2=N/C(=C/c3cccs3)C(=O)O2)c1,20
14,Cc1cc2c(cc(C(=O)OCC(=O)NCc3cccs3)n2C(C)C)o1,6.81
15,COc1cccc(-n2nnnc2SCC(=O)c2ccc(NC(C)=O)cc2)c1,-17.3
16,COc1ccccc1-n1c(SCC(=O)NC2CC2)nc2ccccc2c1=O,-23.1
17,COC(=O)c1cc(CNC(=O)CC(C)c2ccccc2)ccc1OC (centres unmarked),8.5
18,CCOc1ccc(N2C(=O)/C(=C/c3ccco3)C(=O)NC2=S)cc1,16.8
19,Cc1ccccc1NC(=S)/C(=C(\[O-])c1ccc(C)c([N+](=O)[O-])c1)[n+]1ccccc1,-1.7
20,O=C(NC1CCCCCCC1)c1c(O)c2ccccc2[nH]c1=O,19.4
21,CC(=O)c1nn(-c2cccc(C)c2)cc1C(=O)c1cccc(Br)c1,18.4
22,Nc1ccc([N+](=O)[O-])cc1C(=O)NNC(=O)c1ccco1,25.9
